# Test results published in PubChem BioAssay AID504706 (National Center for Advancing Translational Sciences (NCATS), 2011).
# Among all 320,000 compounds or so, about 200 (0.062%) were called active. This list was built around the results that the source calls inconclusive (neither active nor inactive); the mix of calls is not that of the screen. Calls follow the shape of the dose curve; as a rule, active = well fitted activation curve with a large enough effect; inconclusive = small, poorly fitted or top-dose-only effect; inactive = no such curve, though single readings can be large or run the other way. Potencies of inconclusive entries are left out as doubtful fits.
# Test: qHTS assay for re-activators of p53 using a Luc reporter; also: nearly all actives have a fitted effect of over 45% in size
# Conditions: H1299 p53-A138V BP100-luciferase reporter, luminescence, 24 h; series mostly up to 92.2 µM
# Outline: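 H1299 (p53-null), stable ts p53-A138V + BP100-Luc; 1000 cells/well, Opti-MEM/10% FBS; cpd 4 pt, 1:5; 24 h, 37 deg C, 5% CO2; detection reagent 10 min RT; luminescence.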
# Potency is read from the fitted curve at half-maximal effect; tags tell the direction and shape of the fitted curve.
row,SMILES,Potency
1,CC(C)C[C@@H](CSc1ccc(Br)cc1)N1CCN(CC(C)C)CCC1=O,"inconclusive [activator, full curve]"
2,O=C1c2ccccc2C(=O)c2[nH]cnc21,"inconclusive [activator, single point]"
3,COC(=O)c1ccc(COC(=O)c2ccc(SC)cc2OC)cc1,"inconclusive [activator, single point]"
4,CCCN(CCC)C(=O)CSc1nc2ccsc2c(=O)n1NC(=O)c1ccccc1,"inconclusive [activator, single point]"
5,CCn1c(SCc2nc3ccccc3s2)nnc1-c1cccs1,"inconclusive [activator, full curve, poor fit]"
6,COc1ccc([C@H]2CC(=O)C=C(/C=C/c3ccc(Cl)cc3)C2)cc1,"inconclusive [activator, partial curve, poor fit]"
7,COc1ccc(NC(=O)c2ccccc2[N+](=O)[O-])cc1,"inconclusive [activator, full curve, poor fit]"
8,CN(C)c1ccc(N=Cc2cccn2C)cc1,"inconclusive [activator, partial curve, poor fit]"
9,CN(C)CCCN(C(=O)c1ccc(S(=O)(=O)N(C)Cc2ccccc2)cc1)c1nc2c(F)cccc2s1,"inconclusive [activator, single point]"
10,COc1ccc(CNC(=O)Cc2csc(Nc3nc(=S)[nH]c4ccccc34)n2)cc1,inactive
11,COc1ccccc1C(=O)Nc1c(C(=O)N(CCN(C)C)Cc2ccco2)oc2ccccc12,inactive
12,Cc1c(/C=C/C(=O)c2ccc(O)cc2)cnn1C,"inconclusive [activator, partial curve, poor fit]"
13,O=C(NC(=S)Nc1ccc(Cl)cn1)c1cccs1,"inconclusive [activator, full curve, poor fit]"
14,Cc1ccc(C(=O)c2cc3ccccc3o2)cc1,"inconclusive [activator, partial curve, poor fit]"
15,O=C(CCN1C(=O)/C(=C/c2ccccc2)SC1=S)N[C@@H](CO)Cc1ccccc1,"inconclusive [activator, single point]"
16,O=C(O)CN1C(=O)/C(=C\C(Br)=C\c2ccccc2)SC1=S,"inconclusive [activator, single point]"
17,CCN(C(=O)COC(=O)C1CCN(S(=O)(=O)c2cccs2)CC1)c1ccccc1,"inconclusive [activator, single point]"
18,CCCOc1cccc(-c2cc(C(=O)N/N=C/c3ccccn3)c3ccccc3n2)c1,"inconclusive [activator, partial curve, poor fit]"
19,O=C(NCCCCCCNC(=O)c1cccs1)c1cccs1,inactive
20,Cc1ccc(CN2C(=O)CCC2C(=O)NCc2ccc3c(c2)OCO3)cc1 (stereo not drawn),inactive
21,Cc1ccc(NC(=O)CN2C(=O)N/C(=C/c3ccc(N4CCOCC4)cc3)C2=O)cc1,"inconclusive [activator, full curve, poor fit]"
22,CCSc1nnc(NC(=O)c2ccccn2)s1,"inconclusive [activator, partial curve, poor fit]"
23,CCOC(=O)c1cc([N+](=O)[O-])sc1NC(=O)c1ccc(S(=O)(=O)N2CC3(C)CC2CC(C)(C)C3)cc1 (stereo not drawn),"inconclusive [activator, partial curve, poor fit]"

row,SMILES,Potency
1,COC(=O)c1ccc(COc2ccccc2/C=C(\C#N)C(=O)Nc2ccc(C)cc2)cc1,"inconclusive [activator, full curve, poor fit]"
2,CCn1c(C)cc(C(=O)CSc2nnnn2C2CCCC2)c1C,"inconclusive [activator, partial curve, poor fit]"
3,C[C@]12CC[C@@H]3c4ccc(O)cc4CC[C@H]3[C@@H]1CCC2=O,inactive
4,CCCCCC(=O)Nc1sc(C)c(C)c1C#N,"inconclusive [activator, partial curve, poor fit]"
5,COC(=O)c1c(-c2ccc(S(C)(=O)=O)cc2)sc2cc(OC)ccc12,"inconclusive [activator, partial curve, poor fit]"
6,C=CCN1C(=O)c2ccc(C(=O)N(CC(C)C)c3c(N)n(CCCC)c(=O)[nH]c3=O)cc2C1=O,inactive
7,Cc1nc(SCc2ccc(OCCC(C)C)cc2)n[nH]1,inactive
8,CN1CCN(C(c2ccc(C(F)(F)F)cc2)c2cc(Cl)c3cccnc3c2O)CC1 (stereo not drawn),"inconclusive [activator, single point]"
9,COc1ccccc1Nc1nc(-c2sc(NC(=O)c3ccco3)nc2C)cs1,"inconclusive [activator, single point]"
10,CCCOc1cccc(C(=O)N/N=C/c2ccoc2)c1,"inconclusive [activator, partial curve, poor fit]"
11,CC(C)OCCCNC(=O)c1ccc(Br)cc1,inactive
12,Cc1cc(C)n(-c2nc(NCCCO)c3c4c(sc3n2)CCCC4)n1,"inconclusive [activator, full curve, poor fit]"
13,COc1cc(OC)cc(C(=O)NNc2nc3cc4c(cc3s2)OCO4)c1,inactive
14,Cc1ccccc1C(=O)NC1CCN(CC(=O)Nc2ccccc2)CC1,"inconclusive [activator, single point]"
15,O=C(CCc1nc(-c2ccccc2)no1)N1CCCC1,"inconclusive [activator, partial curve, poor fit]"
16,CCC(=O)Oc1ccc2oc(=O)cc(C)c2c1,"inconclusive [activator, partial curve, poor fit]"
17,CN(C)c1ccccc1-c1csc(N2CCC(C(N)=O)CC2)n1,"inconclusive [activator, partial curve, poor fit]"
18,O=C(COC(=O)CSCC(=O)N1CCCCC1)Nc1ccc(Cl)cc1,inactive
19,CCOC(=O)c1ccc2nc(NC(=O)C(C)C)sc2c1,"inconclusive [activator, partial curve, poor fit]"
20,Cc1cccnc1NC(=O)COc1ccc2oc3c(c2c1)CCCC3,"inconclusive [activator, partial curve, poor fit]"
21,C/C(=N\O)c1ccc(N2C(=O)C3CC=C(Cl)CC3C2=O)cc1 (stereo not drawn),"inconclusive [activator, partial curve, poor fit]"
22,COc1cccc(OC)c1C(=O)NC(=S)Nc1cc(-c2nc3ccccc3[nH]2)ccc1Cl,"inconclusive [activator, partial curve, poor fit]"
23,CCCCNC(=S)NC(=O)c1ccc([N+](=O)[O-])cc1,"inconclusive [activator, partial curve, poor fit]"

row,SMILES,Potency
1,CCN(Cc1ccncc1)C(=O)c1cccc(S(=O)(=O)N2CCOCC2)c1,"inconclusive [activator, single point]"
2,O=C(CO/N=C/c1ccc(OC(F)F)cc1)NCc1cccs1,inactive
3,COc1cccc(NC(=O)c2ccc(S(=O)(=O)N3CCCC3)cc2)c1,inactive
4,CNc1cccccc1=S,"inconclusive [activator, single point]"
5,Cc1cc(NC(=O)CCCSc2nc(-c3ccco3)cc(C(F)(F)F)n2)n(-c2ccccc2)n1,inactive
6,O=C(CCC1COc2ccccc2O1)Nc1cccnc1 (stereo not drawn),inactive
7,O=C(C1CCN(Cc2ccccc2O)CC1)N1CCN(Cc2ccc3c(c2)OCO3)CC1,"inconclusive [activator, single point]"
8,COC(=O)Nc1ccc(S(=O)(=O)Nc2ccc(C(=O)O)cc2)cc1,inactive
9,Cc1cc(C(=O)COc2ccccc2Cl)c(C)n1C1CC1,"inconclusive [activator, full curve, poor fit]"
10,CCNc1nc(N)c(C(=O)c2ccc(Cl)s2)s1,"inconclusive [activator, partial curve, poor fit]"
11,CCOc1ccc(Nc2oc(Cc3ccccc3)nc2C#N)cc1,"inconclusive [activator, single point]"
12,N/C(=N\OC(=O)c1cccs1)c1ccc(Cl)cc1,"inconclusive [activator, partial curve, poor fit]"
13,CCOc1ccc2nc(SCC(=O)NCc3ccco3)sc2c1,inactive
14,CCOC(=O)CC1COCCN1C(=O)c1cc(COc2ccc(F)c(F)c2)on1 (stereo not drawn),"inconclusive [activator, partial curve, poor fit]"
15,COc1ccc(C(=O)NCC(=O)OCc2csc(-c3ccccc3)n2)cc1,"inconclusive [activator, single point]"
16,C=C1CC2C=C(NC(C)=O)CC(C1)C2 (stereo not drawn),inactive
17,CCN1CCN(c2cc(C)c3cc(NC(=S)NCCCN4CCc5ccccc5C4)ccc3n2)CC1,"inconclusive [activator, partial curve, poor fit]"
18,CC(C)N(C)CCOC(=O)C1COc2ccccc2O1 (stereo not drawn),inactive
19,CN(C(=O)COC(=O)c1cc2ccccc2cc1O)C1CCCCC1,"inconclusive [activator, single point]"
20,CCOc1ccc2nc(NS(C)(=O)=O)sc2c1,"inconclusive [activator, single point]"
21,Fc1ccc(-n2c(=S)[nH]c3cccnc32)cc1,inactive
22,O=Cc1ccc(OCC(=O)N2CCc3ccccc32)c(Br)c1,"inconclusive [activator, full curve, poor fit]"
